{"source": "paper PMC4336329", "about": "(PLoS ONE, 2015)", "note": "The whole screen tested about 310,000 compounds, of which about 14,000 (4.5%) showed an effect of 50% or more. Effects have a minus sign here. The list shows a part of the results.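 Further: peak tail current of the secondary pulse compared with the same well before compound.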"}
{"biological_target": "human ether-à-go-go-related gene (hERG) potassium channel (human, UniProt Q12809)", "sequence (Q12809 whole entry, looked up)": "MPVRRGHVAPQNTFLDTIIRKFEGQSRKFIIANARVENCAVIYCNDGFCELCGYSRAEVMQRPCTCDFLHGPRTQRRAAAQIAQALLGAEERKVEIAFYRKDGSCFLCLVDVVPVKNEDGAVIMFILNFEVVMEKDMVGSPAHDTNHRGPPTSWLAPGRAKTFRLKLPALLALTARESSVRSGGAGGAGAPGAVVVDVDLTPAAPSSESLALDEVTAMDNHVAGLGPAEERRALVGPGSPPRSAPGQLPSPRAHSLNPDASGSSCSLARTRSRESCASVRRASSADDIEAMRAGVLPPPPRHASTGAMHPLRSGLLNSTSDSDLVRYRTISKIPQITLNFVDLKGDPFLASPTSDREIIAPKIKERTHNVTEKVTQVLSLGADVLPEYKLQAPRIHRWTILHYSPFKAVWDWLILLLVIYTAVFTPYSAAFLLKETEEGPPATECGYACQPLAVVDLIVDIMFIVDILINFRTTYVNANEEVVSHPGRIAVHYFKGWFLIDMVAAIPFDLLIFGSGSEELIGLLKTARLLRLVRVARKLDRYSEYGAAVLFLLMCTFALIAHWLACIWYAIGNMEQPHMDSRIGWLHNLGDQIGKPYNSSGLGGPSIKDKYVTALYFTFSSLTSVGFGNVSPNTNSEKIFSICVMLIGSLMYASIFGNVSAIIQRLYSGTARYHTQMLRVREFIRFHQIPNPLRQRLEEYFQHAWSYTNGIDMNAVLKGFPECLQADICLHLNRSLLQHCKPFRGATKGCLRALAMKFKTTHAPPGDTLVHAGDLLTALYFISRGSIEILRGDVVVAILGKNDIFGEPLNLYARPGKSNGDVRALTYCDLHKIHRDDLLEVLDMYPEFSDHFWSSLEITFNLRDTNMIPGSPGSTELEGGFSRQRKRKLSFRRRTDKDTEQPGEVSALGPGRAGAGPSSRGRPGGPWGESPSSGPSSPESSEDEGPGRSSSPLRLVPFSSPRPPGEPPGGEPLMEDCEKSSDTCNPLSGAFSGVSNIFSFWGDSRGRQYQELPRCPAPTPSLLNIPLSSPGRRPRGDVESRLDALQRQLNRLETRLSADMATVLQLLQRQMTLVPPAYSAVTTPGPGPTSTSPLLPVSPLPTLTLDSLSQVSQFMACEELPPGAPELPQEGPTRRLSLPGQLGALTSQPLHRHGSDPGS", "experiment": "primary screen, population patch clamp on CHO cells stably expressing hERG", "units": {"hERG current change (%, negative = inhibition) at 10uM": "%"}}
{"smiles": "Cc1ccc(C)c(Oc2ncnc(N)c2[N+](=O)[O-])c1", "hERG current change (%, negative = inhibition) at 10uM": 0.818}
{"smiles": "COc1ccc(/C=C/C(=O)Nc2cccc(S(=O)(=O)NC3=NCCCCC3)c2)cc1OC", "hERG current change (%, negative = inhibition) at 10uM": 5.13}
{"smiles": "C[C@H](NC(=O)[C@H]1N2C(=O)c3ccccc3C2SC1(C)C)C(=O)N1CCN(C)CC1", "note": "(stereo partly shown)", "hERG current change (%, negative = inhibition) at 10uM": 9.24}
{"smiles": "NC(=O)C1CCCN(CC(=O)Nc2ccccc2C(=O)NC2CC2)C1", "note": "(stereo not shown)", "hERG current change (%, negative = inhibition) at 10uM": -10.7}
{"smiles": "CC(=O)Nc1cc2ccccc2oc1=O", "hERG current change (%, negative = inhibition) at 10uM": 22.5}
{"smiles": "O=C(Cn1c(COc2ccccc2)nc2ccccc21)Nc1cc(Cl)ccc1Cl", "hERG current change (%, negative = inhibition) at 10uM": 9.36}
{"smiles": "COc1ccccc1CNC(=O)C1CCN(C(=O)c2sccc2-n2cccc2)CC1", "hERG current change (%, negative = inhibition) at 10uM": 17.5}
{"smiles": "O=[N+]([O-])c1ccc(OCCO)c(P(=O)(c2ccccc2)c2ccccc2)c1", "hERG current change (%, negative = inhibition) at 10uM": -2.8}
{"smiles": "COc1cc2sc3ccc(C#Cc4ccc(N)cc4)cc3c(=O)c2cc1OC", "hERG current change (%, negative = inhibition) at 10uM": 20.4}
{"smiles": "C#CC(=O)N(c1cc(OC)ccc1OC)C(C(=O)NC1CCCC1)c1cccs1", "note": "(stereo not shown)", "hERG current change (%, negative = inhibition) at 10uM": -12.6}
{"smiles": "COc1ccccc1C(=O)C1CCCN(C(=O)c2snnc2C)C1", "note": "(stereo not shown)", "hERG current change (%, negative = inhibition) at 10uM": 11.8}
{"smiles": "CN(C)CC/C=C1\\c2cc(F)ccc2CSc2ccccc21.O=C(O)/C=C\\C(=O)O", "hERG current change (%, negative = inhibition) at 10uM": -35.4}
{"smiles": "CSCCC(NS(=O)(=O)c1ccc2c(c1)OCCO2)C(=O)N(C)Cc1ccc(F)cc1", "note": "(stereo not shown)", "hERG current change (%, negative = inhibition) at 10uM": -35.2}
{"smiles": "CC1CN(C(=O)Nc2ccc(F)cc2F)CC(C)O1", "note": "(stereo not shown)", "hERG current change (%, negative = inhibition) at 10uM": -29.5}
{"smiles": "Cc1nnsc1-c1c(C(=O)N2CCOCC2)c(C)nn1-c1ccccc1", "hERG current change (%, negative = inhibition) at 10uM": 0.762}
{"smiles": "O=c1[nH]cc(NCCc2ccccc2)c(=O)[nH]1", "hERG current change (%, negative = inhibition) at 10uM": 8.76}
{"smiles": "COc1ccccc1/C=C/C=N/NC(=O)CCn1cnc2ccccc21", "hERG current change (%, negative = inhibition) at 10uM": -25}
{"smiles": "Cc1ccc(-c2nn(-c3ccccc3)cc2/C=C2\\SC(=S)N(CCCCCC(=O)O)C2=O)o1", "hERG current change (%, negative = inhibition) at 10uM": 15.1}
{"smiles": "CC1=C(C(=O)OCCC(C)C)C(c2ccc3c(c2)OCO3)NC(=O)N1", "note": "(stereo not shown)", "hERG current change (%, negative = inhibition) at 10uM": 3.5}
{"smiles": "Cc1c(Cl)cccc1NC(=S)N(CCN(C)C)C(C)c1ccco1", "note": "(stereo not shown)", "hERG current change (%, negative = inhibition) at 10uM": -55.9}
{"smiles": "C=CCn1c(CNC(=O)CCC)nc2ccccc21", "hERG current change (%, negative = inhibition) at 10uM": 6.74}
{"smiles": "CC(Cc1c[nH]c2ccccc12)NC(=O)OCCCl", "note": "(stereo not shown)", "hERG current change (%, negative = inhibition) at 10uM": 11.7}
{"smiles": "COC(=O)c1c(C)[nH]c(C(=O)OC(C)C(=O)N(C)C2CCCCC2)c1C", "note": "(stereo not shown)", "hERG current change (%, negative = inhibition) at 10uM": -2.13}
{"smiles": "CC1CN(S(=O)(=O)c2cccc(C(=O)OCC(=O)NCc3ccccc3)c2)CC(C)O1", "note": "(stereo not shown)", "hERG current change (%, negative = inhibition) at 10uM": -15.7}
{"smiles": "C=CCn1c(=O)[nH]c2cc(C(=O)N3CCN(c4ccc(C(C)=O)cc4)CC3)ccc2c1=O", "hERG current change (%, negative = inhibition) at 10uM": -19.8}
{"smiles": "CCc1ccc(-n2c(O)c(/C=N/NC(=O)c3ccncc3)c(=O)[nH]c2=O)cc1", "hERG current change (%, negative = inhibition) at 10uM": 17}
{"smiles": "O=C(Nc1ccc(N2CCN(C(=O)c3ccco3)CC2)cc1)c1cccs1", "hERG current change (%, negative = inhibition) at 10uM": -8.15}
{"smiles": "CC(C)(C)C1CCC(=NNC(=O)C(=O)NC2CCCCC2)CC1", "note": "(stereo not shown)", "hERG current change (%, negative = inhibition) at 10uM": 3.37}
{"smiles": "Cc1ccc(S(=O)(=O)N(C)C)cc1NC(=O)COC(=O)CCC(=O)c1cccs1", "hERG current change (%, negative = inhibition) at 10uM": -21.8}
{"smiles": "Cc1ccc(C(=O)NNC(=O)C2CCN(Cc3ccc(Cl)c(Cl)c3)CC2)cc1", "hERG current change (%, negative = inhibition) at 10uM": 3.43}
{"smiles": "CC(C)(C)[C@@H]1C=C(C(=O)N2CCOCC2)O[C@H](OCc2ccc(CO)cc2)C1", "hERG current change (%, negative = inhibition) at 10uM": -7.33}
{"smiles": "CC(C(=O)N1CCCc2ccccc21)N1C(=O)c2ccccc2C1=O", "note": "(stereo not shown)", "hERG current change (%, negative = inhibition) at 10uM": -21.3}
{"smiles": "CC(=O)Nc1ccc(S(=O)(=O)NNC(=O)c2cccc([N+](=O)[O-])c2)cc1", "hERG current change (%, negative = inhibition) at 10uM": 17.8}
{"smiles": "COc1ccccc1NC(=O)C(C)OC(=O)CCSc1ccc(F)cc1", "note": "(stereo not shown)", "hERG current change (%, negative = inhibition) at 10uM": 1.41}
{"smiles": "Cc1nn(CC(=O)Nc2ccc(Cl)cc2Cl)c(=O)c2ccccc12", "hERG current change (%, negative = inhibition) at 10uM": 3.83}
{"smiles": "CN(C)CCn1c2c(c(SCC(=O)NCc3ccccc3)nc1=O)CCCC2", "hERG current change (%, negative = inhibition) at 10uM": -20.8}
{"smiles": "Cc1ccccc1NC(=O)CN1C(=O)CSc2ccccc21", "hERG current change (%, negative = inhibition) at 10uM": 17.3}
{"smiles": "Cc1cccc(C)c1NC(=O)CNC(=O)C(Cc1ccccc1)NC(=O)c1ccccc1", "note": "(stereo not shown)", "hERG current change (%, negative = inhibition) at 10uM": 13.5}
{"smiles": "CS(=O)(=O)N(CC(=O)N1CCCC1)c1ccc(Cl)c(Cl)c1", "hERG current change (%, negative = inhibition) at 10uM": 3.05}
{"smiles": "CCCNC(=O)c1csc(Nc2cccc3ccccc23)n1", "hERG current change (%, negative = inhibition) at 10uM": -30}
{"smiles": "CN1CCN(CC(=O)Nc2nc(-c3ccccc3)cs2)CC1", "hERG current change (%, negative = inhibition) at 10uM": -40.4}
{"smiles": "Cn1c(=O)c2c(nc(/C=C/c3cccc(Cl)c3)n2C)n(C)c1=O", "hERG current change (%, negative = inhibition) at 10uM": 19.4}
{"smiles": "CN(C(=O)COC(=O)c1n[nH]c(=O)c2ccccc12)c1ccccc1", "hERG current change (%, negative = inhibition) at 10uM": -12.2}
{"smiles": "Cc1cc(C)n(CC(=O)N2c3ccccc3Sc3ccc(C(F)(F)F)cc32)n1", "hERG current change (%, negative = inhibition) at 10uM": -7.56}
{"smiles": "CC(C)(C)c1ccc(C2=CC(c3ccccc3)n3ncnc3N2)cc1", "note": "(stereo not shown)", "hERG current change (%, negative = inhibition) at 10uM": 0.793}
{"smiles": "CC(C(=O)NCc1ccc(F)cc1)n1ccc2cc(S(=O)(=O)N3CCCC3)ccc21", "note": "(stereo not shown)", "hERG current change (%, negative = inhibition) at 10uM": -12.4}
{"smiles": "CCc1cc(=O)oc2cc(C)cc(OCC(C)=O)c12", "hERG current change (%, negative = inhibition) at 10uM": 5.77}
{"smiles": "Cc1nc(Sc2nnnn2-c2ccccc2)c(C#N)c(C)c1C", "hERG current change (%, negative = inhibition) at 10uM": -21.3}
{"smiles": "Cc1cc(C)n(-c2nnc(C)n2/N=C/c2ccccc2O)n1", "hERG current change (%, negative = inhibition) at 10uM": -7.13}
{"smiles": "Cn1c(=O)oc2cc(S(=O)(=O)NCCC(=O)N3CCc4ccccc4C3)ccc21", "hERG current change (%, negative = inhibition) at 10uM": -19.5}
{"smiles": "COc1ccc(Cl)cc1S(=O)(=O)N(C)CC(=O)NCc1ccccn1", "hERG current change (%, negative = inhibition) at 10uM": 17.8}
{"smiles": "CCN(CC)CCCNC(=O)c1cc(Nc2ccc(OC)cc2)nc2ccccc12", "hERG current change (%, negative = inhibition) at 10uM": -53.8}
{"smiles": "Nc1c(Cl)ncnc1N/N=C/c1ccc2ccccc2n1", "hERG current change (%, negative = inhibition) at 10uM": -11.7}
{"smiles": "COc1ccc([C@@H]2C[C@H]3CN(Cc4ccccc4OC)C(=O)[C@]34CCCN24)cc1C", "hERG current change (%, negative = inhibition) at 10uM": -46.6}
{"smiles": "COc1ccccc1C(C(=O)NC1CCCCC1)N(C(=O)c1csnn1)C1CC1", "note": "(stereo not shown)", "hERG current change (%, negative = inhibition) at 10uM": 0.419}
